Reference: paper PMC3398308
These are yes or no findings as the source states them, for the method shown. For some assays here: Binding seen in cells or lysates may run through a third protein. Some results given as binding are weak or reduced against the parent protein; the word gives no strength. For some assays here: Where a sequence is shown, tags or fusion partners need not be part of it.

The chains behind the UniProt entries cited, without tags or fusion partners.
UniProt Q9ESG2: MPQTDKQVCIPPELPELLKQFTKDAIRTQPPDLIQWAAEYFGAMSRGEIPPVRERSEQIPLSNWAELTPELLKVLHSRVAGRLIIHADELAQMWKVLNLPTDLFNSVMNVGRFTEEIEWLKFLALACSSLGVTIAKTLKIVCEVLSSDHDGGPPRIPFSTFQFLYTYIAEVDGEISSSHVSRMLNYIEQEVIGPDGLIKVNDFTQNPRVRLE

Columns and labels:
[1] = molecular target: ropporin full-length open reading frame, Gal4 fusion, pGBKT7-ropporin (mouse) (UniProt Q9ESG2); test: two-hybrid; Matchmaker Gal4 System 3, yeast AH109, pGADT7 and pGBKT7 fusions; growth on medium stringency SD/-His/-Leu/-Trp plates, 30°C, 3-5 days
[2] = molecular target: T1, AKAP3 full-length open reading frame, Gal4 fusion, pGBKT7-mAKAP3 (mouse) (UniProt O88987); test: two-hybrid; quantitative alpha-galactosidase assay of culture supernatants of the co-transformed yeast (p-nitrophenyl-D-galactopyranoside, 30°C, 60 min)
T1 sequence: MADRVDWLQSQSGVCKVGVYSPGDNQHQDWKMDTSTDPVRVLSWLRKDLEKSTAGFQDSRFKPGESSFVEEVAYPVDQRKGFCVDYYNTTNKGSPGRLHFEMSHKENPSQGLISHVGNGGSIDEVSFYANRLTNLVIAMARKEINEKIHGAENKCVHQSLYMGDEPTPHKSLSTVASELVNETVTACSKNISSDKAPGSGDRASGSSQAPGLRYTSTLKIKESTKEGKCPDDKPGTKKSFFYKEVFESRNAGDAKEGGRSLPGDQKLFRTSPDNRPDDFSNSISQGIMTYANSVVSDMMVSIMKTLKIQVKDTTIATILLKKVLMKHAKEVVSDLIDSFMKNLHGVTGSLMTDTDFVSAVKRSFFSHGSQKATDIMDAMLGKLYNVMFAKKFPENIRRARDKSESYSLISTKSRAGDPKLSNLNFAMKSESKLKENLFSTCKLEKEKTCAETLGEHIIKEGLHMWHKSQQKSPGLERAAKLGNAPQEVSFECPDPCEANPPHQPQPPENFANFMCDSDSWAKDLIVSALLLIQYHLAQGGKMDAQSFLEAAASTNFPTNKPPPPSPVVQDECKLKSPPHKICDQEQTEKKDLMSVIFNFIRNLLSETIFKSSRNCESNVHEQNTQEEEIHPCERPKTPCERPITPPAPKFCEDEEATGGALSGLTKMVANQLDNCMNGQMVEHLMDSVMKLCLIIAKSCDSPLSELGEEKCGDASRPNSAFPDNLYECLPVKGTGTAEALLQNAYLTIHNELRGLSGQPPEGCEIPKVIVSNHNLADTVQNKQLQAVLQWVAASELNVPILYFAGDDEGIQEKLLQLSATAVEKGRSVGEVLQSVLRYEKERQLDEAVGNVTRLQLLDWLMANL

[3] = molecular target: ropporin full-length open reading frame, Gal4 fusion, pGBKT7-ropporin (mouse) (UniProt Q9ESG2); test: as above
[4] = molecular target: T1, AKAP3 full-length open reading frame, Gal4 fusion, pGBKT7-mAKAP3 (mouse); test: two-hybrid; Matchmaker Gal4 System 3, yeast AH109, pGADT7 and pGBKT7 fusions; growth on high stringency SD/-Ade/-His/-Leu/-Trp plates with X-alpha-Gal, 30°C, 3-5 days
[5] = molecular target: ropporin full-length open reading frame, Gal4 fusion, pGBKT7-ropporin (mouse) (UniProt Q9ESG2); test: condition: only on high stringency SD/-Ade/-His/-Leu/-Trp medium; two-hybrid; Matchmaker Gal4 System 3, yeast AH109, pGADT7 and pGBKT7 fusions; growth on high stringency SD/-Ade/-His/-Leu/-Trp plates with X-alpha-Gal, 30°C, 3-5 days
[6] = molecular target: T2, AKAP3 (mouse (endogenous in mouse sperm)) (UniProt O88987); test: co-IP; method 2: mouse sperm extracted in Celis buffer without DTT, dialysed against PBS, precipitated with anti-AKAP3 polyclonal or anti-AKAP4 monoclonal antibody; 2-D Western blot with anti-CABYR-A or anti-CABYR-B; pre-immune serum or normal mouse IgG as control
T2 sequence: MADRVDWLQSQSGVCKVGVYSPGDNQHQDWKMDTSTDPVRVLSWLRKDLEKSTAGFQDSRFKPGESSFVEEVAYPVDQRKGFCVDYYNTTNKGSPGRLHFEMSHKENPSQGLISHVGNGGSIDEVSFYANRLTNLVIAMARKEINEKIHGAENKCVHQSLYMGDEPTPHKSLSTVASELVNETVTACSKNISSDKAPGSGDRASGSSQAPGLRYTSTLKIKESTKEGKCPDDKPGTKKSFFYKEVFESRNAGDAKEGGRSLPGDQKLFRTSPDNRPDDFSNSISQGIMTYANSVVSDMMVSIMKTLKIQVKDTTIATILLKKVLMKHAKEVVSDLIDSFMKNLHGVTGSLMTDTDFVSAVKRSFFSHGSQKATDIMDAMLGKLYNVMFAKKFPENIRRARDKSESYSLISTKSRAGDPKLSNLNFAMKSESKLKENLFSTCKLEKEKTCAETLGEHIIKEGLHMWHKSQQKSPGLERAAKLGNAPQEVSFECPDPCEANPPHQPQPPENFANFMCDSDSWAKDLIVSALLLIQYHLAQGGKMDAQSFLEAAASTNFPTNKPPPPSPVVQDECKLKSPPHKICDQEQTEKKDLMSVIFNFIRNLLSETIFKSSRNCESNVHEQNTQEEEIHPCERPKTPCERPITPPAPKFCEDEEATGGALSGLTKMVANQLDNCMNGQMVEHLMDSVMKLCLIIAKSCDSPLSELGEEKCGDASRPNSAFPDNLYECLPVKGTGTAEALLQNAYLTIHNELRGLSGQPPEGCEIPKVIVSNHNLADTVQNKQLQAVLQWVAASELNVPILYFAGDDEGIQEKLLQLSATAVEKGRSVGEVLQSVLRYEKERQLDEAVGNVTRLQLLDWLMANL

Row | Binder | binding [1] | binding [2] | binding [3] | binding [4] | binding [5] | binding [6]
1 | full length CABYR-A (CR-A) Gal4 fusion, pGADT7-mCRA (protein, UniProt Q9D424 1-453) MISSKPRLVVPYGLKTLLEGVSRAILKTNPTNITQFAAVYFKELIVFREGNSSLDIKDLIKQFHQMKVEKWAEGVTVEKKECIKEPIKPPPVPCKPTHMEKSTDTEEDNVAGPLFSNKTTQFPSVHAEVQSEETSEGARGPSDKPTTPKTDYTPPSSPPPAPVSAEYAYVPADPAQFAAQMLGNVPSTYSEVLMVDVATSTPAVPQDVLSAEFAEEVVLSAPLVCSGETVEVQVVSKTSAQVVVGPVSEAEPPKASSAPLQGEQEPPAHEAPDTQVTSASRISSIYNDVPVNEGVVYVEEIPGYIVIPFTDHDQVACVKEIEQSPPGSPKAVEPKTKISIESLKTVQVEENSQHKSSVHVEAEATVLLSNTALDGQPEVPAEPLDAEGFFKVASENSLHLETEIVIINPDDPGQEESGGNAAPHSSGDPFPPAPGGLTEPEMQPDGEAAPEQV | binds weakly | binds | binds weakly | binds | no binding | –
2 | truncated CR-A (TCR-A) without the RII-like domain, Gal4 fusion, pGADT7-mTCRA (domain or fragment, UniProt Q9D424 51-453) NSSLDIKDLIKQFHQMKVEKWAEGVTVEKKECIKEPIKPPPVPCKPTHMEKSTDTEEDNVAGPLFSNKTTQFPSVHAEVQSEETSEGARGPSDKPTTPKTDYTPPSSPPPAPVSAEYAYVPADPAQFAAQMLGNVPSTYSEVLMVDVATSTPAVPQDVLSAEFAEEVVLSAPLVCSGETVEVQVVSKTSAQVVVGPVSEAEPPKASSAPLQGEQEPPAHEAPDTQVTSASRISSIYNDVPVNEGVVYVEEIPGYIVIPFTDHDQVACVKEIEQSPPGSPKAVEPKTKISIESLKTVQVEENSQHKSSVHVEAEATVLLSNTALDGQPEVPAEPLDAEGFFKVASENSLHLETEIVIINPDDPGQEESGGNAAPHSSGDPFPPAPGGLTEPEMQPDGEAAPEQV | binds weakly | no binding | binds weakly | no binding | no binding | –
3 | 80 kDa CABYR-A only variant (protein, UniProt Q9D424 1-453) MISSKPRLVVPYGLKTLLEGVSRAILKTNPTNITQFAAVYFKELIVFREGNSSLDIKDLIKQFHQMKVEKWAEGVTVEKKECIKEPIKPPPVPCKPTHMEKSTDTEEDNVAGPLFSNKTTQFPSVHAEVQSEETSEGARGPSDKPTTPKTDYTPPSSPPPAPVSAEYAYVPADPAQFAAQMLGNVPSTYSEVLMVDVATSTPAVPQDVLSAEFAEEVVLSAPLVCSGETVEVQVVSKTSAQVVVGPVSEAEPPKASSAPLQGEQEPPAHEAPDTQVTSASRISSIYNDVPVNEGVVYVEEIPGYIVIPFTDHDQVACVKEIEQSPPGSPKAVEPKTKISIESLKTVQVEENSQHKSSVHVEAEATVLLSNTALDGQPEVPAEPLDAEGFFKVASENSLHLETEIVIINPDDPGQEESGGNAAPHSSGDPFPPAPGGLTEPEMQPDGEAAPEQV | – | – | – | – | – | binds
